Results reported in the supplement of paper PMC4166925.
± gives the standard deviation of the averaged measurements. In all, about 33,000 sequences were measured (“E-score (dimensionless, -0.5 to 0.5)”: median about -0.046, highest 2% from about 0.36 on). Some of the results follow.

Test system: T1, SpTbr T-box DNA-binding domain (GST fusion)
T1 sequence: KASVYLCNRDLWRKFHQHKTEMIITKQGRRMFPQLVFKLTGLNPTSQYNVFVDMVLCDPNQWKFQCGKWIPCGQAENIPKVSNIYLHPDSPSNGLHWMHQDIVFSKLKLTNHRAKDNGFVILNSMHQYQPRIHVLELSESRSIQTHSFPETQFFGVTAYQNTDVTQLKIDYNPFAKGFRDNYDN
Experiment: PBM E-score of 8-mer (E-score (dimensionless, -0.5 to 0.5)); Tbr is Tbrain of the sea star Patiria miniata (Pm) or the sea urchin Strongylocentrotus purpuratus (Sp); higher = stronger binding preference; most listed sequences are background and not binding sites
Conditions: the construct has about 5 more residues each side
Procedure, shortened: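 GST-fused Tbr T-box DNA-binding domains (the whole T-box plus about five flanking residues) were expressed in BL21 E. coli at 20 °C and purified by glutathione affinity chromatography. Universal Agilent oligonucleotide arrays were made double-stranded by primer extension, incubated with 200 nM protein in PBS (pH 7.5), then scanned and quantified. Every ungapped 8-mer was scored from probe intensities. The Universal PBM Analysis Suite gave each word an enrichment E-score, averaged over duplicate arrays.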

Row | Sequence | PBM E-score of 8-mer
1 | GTGGAAAA | 0.125 ± 0.036
2 | GTGCGAAA | 0.4765 ± 0.0018
3 | AGACCACG | -0.123 ± 0.023
4 | AAACAAGA | -0.144 ± 0.088
5 | AGGACTTC | -0.0985 ± 0.016
6 | CATCTTCG | 0.0284 ± 0.034
7 | GTCACTGA | 0.114 ± 0.05
8 | ATTCTGAG | -0.206 ± 0.048
9 | TATTGTCA | 0.259 ± 0.0048
10 | ATTTCACA | 0.4303 ± 0.0022
11 | ACATGCCT | -0.149 ± 0.028
12 | ACCGCCGA | -0.0679 ± 0.082
13 | CTTACAAA | -0.157 ± 0.036
14 | GACAATGC | 0.1077 ± 0.00013
15 | GAGATCCA | 0.00312 ± 0.022
16 | CGCGATCC | 0.25 ± 0.058
17 | ACACGAAA | -0.0562 ± 0.022
18 | ACGGTGCG | 0.298 ± 0.024
19 | GTCAATTA | 0.0683 ± 0.081
20 | TAGTTATA | -0.132 ± 0.028
21 | GGCAACAA | 0.13 ± 0.019
22 | AGAGATTC | -0.0558 ± 0.025
23 | AATTCCGA | -0.0591 ± 0.017
24 | AGATCTGG | -0.115 ± 0.13

Row | Sequence | PBM E-score of 8-mer
25 | TACCGAAA | -0.282 ± 0.051
26 | TACACAGA | -0.191 ± 0.08
27 | CCTTACAC | 0.3668 ± 0.0022
28 | AACAAGCG | 0.124 ± 0.022
29 | ATGCTTAG | -0.0663 ± 0.052
30 | AAGAAGCT | -0.135 ± 0.037
31 | CTTAGCGA | 0.161 ± 0.014
32 | GCGTTGCC | 0.224 ± 0.024
33 | GACCATTA | -0.0128 ± 0.047
34 | ACTTACAC | 0.251 ± 0.075
35 | AGCGCCTG | 0.151 ± 0.0084
36 | CAATGTCG | 0.143 ± 0.0028
37 | AATGAGTC | -0.0246 ± 0.0053
38 | GGACGCCA | 0.00509 ± 0.055
39 | GCCGACCA | -0.0701 ± 0.06
40 | CATAGGGG | -0.19 ± 0.021
41 | CGAGCCGC | 0.131 ± 0.09
42 | ATCCTAAC | 0.0464 ± 0.0035
43 | AGGTAAGG | -0.0391 ± 0.017
44 | AGACTACT | -0.196 ± 0.027
45 | ACAAATGA | -0.115 ± 0.033
46 | GATAGGCA | -0.0863 ± 0.091
47 | CAAACTCC | -0.00739 ± 0.073
48 | TGAGCTAA | -0.0118 ± 0.003

Row | Sequence | PBM E-score of 8-mer
49 | AGAGACAA | -0.0942 ± 0.008
50 | AACATGGT | 0.0967 ± 0.028
51 | GGAGCTAA | -0.165 ± 0.013
52 | CGCGTGAA | 0.4208 ± 0.0018
53 | ATGGTCAG | -0.188 ± 0.03
54 | GAACTGGA | -0.101 ± 0.015
55 | TATGAAAA | -0.14498 ± 0.00011
56 | AGGATTAA | -0.0396 ± 0.046
57 | AATGAAGC | -0.23 ± 0.11
58 | CCCTGTCC | -0.0439 ± 0.043
59 | GACTTGAC | 0.077 ± 0.081
60 | CCGTCTTA | -0.123 ± 0.028
61 | GCGGCAAA | 0.1484 ± 0.0012
62 | AATCCCCC | -0.339 ± 0.097
63 | ATGTAATC | -0.0831 ± 0.014
64 | AATCGCTG | -0.0659 ± 0.031
65 | CGAATGTA | -0.0892 ± 0.04
66 | CAGCAAGA | -0.0629 ± 0.045
67 | CGCCATTA | 0.0699 ± 0.017
68 | CTGCAAAC | -0.0237 ± 0.035
69 | CTCCTAAA | -0.231 ± 0.055
70 | CAATATTA | -0.2 ± 0.027
71 | TAGGAAAA | -0.211 ± 0.0062
72 | ACCGCTTA | -0.151 ± 0.0038

Row | Sequence | PBM E-score of 8-mer
73 | AAGCTCGG | -0.0679 ± 0.069
74 | AGAGATTG | 0.00583 ± 0.025
75 | AGAGCTGA | -0.108 ± 0.023
76 | ATTGTTCC | -0.076 ± 0.0045
77 | AGGCGGAG | -0.199 ± 0.01
78 | AGTCGGCA | 0.0408 ± 0.12
79 | GCGCAGCC | -0.0173 ± 0.027
80 | ATATAGAT | -0.11 ± 0.041
81 | GTCGTGTA | -0.0754 ± 0.07
82 | AACCCACG | -0.072 ± 0.023
83 | AATCCACA | 0.169 ± 0.0031
84 | CCGTCAAC | 0.24 ± 0.021
85 | AGGTTGGG | -0.271 ± 0.012
86 | CACCCCAG | 0.167 ± 0.02
87 | TCACCCCA | 0.166 ± 0.0061
88 | AATATCCA | -0.0696 ± 0.057
89 | AGTATGAC | 0.0489 ± 0.035
90 | AAAATGTG | 0.253 ± 0.041
91 | CCGTGATA | 0.0742 ± 0.019
92 | GAGTGGAC | -0.0772 ± 0.041
93 | GCGATGAC | 0.172 ± 0.02
94 | ATAGCTGA | -0.0564 ± 0.04
95 | GATTTCCA | 0.146 ± 0.051
96 | AAACCAGG | -0.0282 ± 0.041

Row | Sequence | PBM E-score of 8-mer
97 | ACCCTCAC | 0.155 ± 0.084
98 | GGAAGATA | -0.267 ± 0.024
99 | CGCACCTC | 0.453 ± 0.016
100 | AAGCTAGA | -0.186 ± 0.021
101 | CAGTTGCA | 0.112 ± 0.033
102 | CATGTTAC | -0.141 ± 0.018
103 | GTAGCAAA | 0.0279 ± 0.094
104 | TAGCGTCA | 0.21 ± 0.013
105 | CCATAGCC | -0.16 ± 0.028
106 | CAGCCCCG | -0.281 ± 0.039
107 | CCGGCCGA | -0.183 ± 0.014
108 | CACTCTTC | 0.192 ± 0.046
109 | ATCGGCAT | -0.154 ± 0.045
110 | GTTAATGA | -0.00365 ± 0.018
111 | CGACAGCC | 0.105 ± 0.026
112 | AAGACATC | -0.0616 ± 0.014
113 | CACGCAGG | 0.155 ± 0.013
114 | ATGATTTC | 0.0105 ± 0.063
115 | ATCCTGGA | 0.0696 ± 0.045
116 | GGTCCATA | -0.372 ± 0.027
117 | GTGAAACA | 0.224 ± 0.0064
118 | CCCCCAGG | -0.215 ± 0.018
119 | CGTAAAAC | -0.0886 ± 0.059
120 | CGACATTA | 0.0694 ± 0.045

Row | Sequence | PBM E-score of 8-mer
121 | GTAGCCTA | -0.0225 ± 0.059
122 | GTAGCGAC | 0.163 ± 0.005
123 | GCATTGAA | -0.203 ± 0.0013
124 | AGCCAGAC | -0.2804 ± 0.0019
125 | GGCCTAGA | -0.307 ± 0.012
126 | AGGTAGTC | -0.212 ± 0.049
127 | ACTCTGAC | 0.074 ± 0.054
128 | ACTCATCG | 0.0714 ± 0.043
129 | GACAGGAC | -0.0935 ± 0.012
130 | CGTGTCCC | -0.028 ± 0.1
131 | GGCCAGGA | -0.19 ± 0.028
132 | CATCTTTC | 0.0605 ± 0.011
133 | ACACCCAT | 0.282 ± 0.0078
134 | GCTAACGA | 0.3 ± 0.0067
135 | AACTTACA | 0.0779 ± 0.081
136 | CATAAATG | 0.0176 ± 0.0079
137 | AAATGTCC | -0.193 ± 0.051
138 | AAATTCCC | -0.179 ± 0.013
139 | AATGGCGT | 0.192 ± 0.0042
140 | GCGCTACA | 0.0622 ± 0.027
141 | GGGGGATA | 0.00562 ± 0.00082
142 | AAGTAAGA | -0.106 ± 0.13
143 | AAGGCACG | -0.0491 ± 0.016
